Experimental data from PubChem BioAssay AID1347120 (National Center for Advancing Translational Sciences (NCATS), 2019).
Among all 390,000 compounds or so, about 930 (0.24%) were called active. Inconclusive results, whose numbers are uncertain, are shown with a selection of clear calls. Calls follow the shape of the dose curve; as a rule, active = well fitted activation curve with a large enough effect; inconclusive = small, poorly fitted or top-dose-only effect; inactive = no such curve, though single readings can be large or run the other way. Where the call is inconclusive, the potency comes from a doubtful curve fit.

assay: qHTS for Suppressors of FUS Proteinopathy: Primary screen using FUS-linked yeast assay; also: nearly all actives have a fitted effect of over 55% in size;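 as to growth rescue (activation): plate controls were DMSO vehicle for no effect and reference control for full effect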; conditions: S. cerevisiae FUS-expressing, OD600, 24 h; Potency: growth rescue; growth rescue (activation): at 76.6 µM (top of the series)
How it was run: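 Toxicity suppression screen in FUS-yeast. Cells induced with 2% galactose, starting OD 0.005, treated 24hr at 30C with compounds at multiple final concentrations; growth by OD600.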
Potency is read from the fitted curve at half-maximal effect; tags tell the direction and shape of the fitted curve.

**Q.** With `COc1ccc(-c2nc(Cn3c(SCc4ccc(C)cc4)nc4cccnc43)c(C)o2)cc1OC` as the molecule, how does the Potency read?
**A.** The Potency was inconclusive: 39.8 µM [activator, single point].

**Q.** For `CC(C)(C)OC(=O)N1CCCN(C(c2ccnc3ccccc23)c2nnnn2-c2ccc3c(c2)OCCO3)CC1` (configuration not stated), which Potency is on record?
**A.** Its Potency is inconclusive: 44.7 µM [activator, single point].

**Q.** With `CCc1ccc(C2CC(c3ccccc3Cl)Nc3nc(N)nn32)cc1` (configuration not stated) as the molecule, how does the Potency read?
**A.** Its Potency is inconclusive: 22.4 µM [activator, partial curve].

**Q.** With `CCc1ccc(/C=C/C(=O)c2cc(Br)ccc(=O)c2O)cc1` as the molecule, how does the Potency read?
**A.** The Potency was inconclusive: 39.8 µM [activator, single point].

**Q.** With `COC(=O)[C@]12CCCCC=C1N(Cc1ccc(Cl)cc1Cl)C(=O)[C@H](CC(=O)N1CCSCC1)C2` as the molecule, how does the Potency read?
**A.** Its Potency is inconclusive: 44.7 µM [activator, single point].

**Q.** With `CCOc1ccc(C(=O)Nc2ccc(C(F)(F)F)n(C)c2=O)cc1` as the molecule, how does the Potency read?
**A.** The Potency was “inactive”.

**Q.** Which Potency does the source give for `COc1cc2c(cc1OC)CN(C(=O)/C=C/c1ccc(F)cc1)CC2` here?
**A.** The Potency was “inactive”.

**Q.** With `COc1ccc(-n2ncc(N(C)n3cccc3)c(Cl)c2=O)cc1` as the molecule, how does the Potency read?
**A.** Its Potency is “inactive”.

**Q.** With `CCn1nc(C)c(/C=N/NC(=O)c2ccc3c(c2)c(C)c(C)n3Cc2ccccc2)c1C` as the molecule, how does the Potency read?
**A.** The Potency was active: 11.2 µM.

**Q.** With `COc1ccc(NS(=O)(=O)c2c(C(=O)N3CCCCCC3)c(C)n(C)c2C)cc1` as the molecule, how does the growth rescue (activation) read?
**A.** Its growth rescue (activation) is inconclusive: -101% [activator].

**Q.** For `CCOc1ccc(OCC)c(S(=O)(=O)N2CCN(c3cccc(C)c3C)CC2)c1`, which Potency is on record?
**A.** Its Potency is “inactive”.

**Q.** Which Potency does the source give for `Cc1ccc(CNC(=O)CSc2c3c(nc4cc(Cl)ccc24)CCCC3)o1` here?
**A.** The Potency was inconclusive: 39.8 µM [activator, single point].

**Q.** With `COc1cc(C(=O)NCC2(c3ccccc3)CCCC2)ccc1OC(C)C` as the molecule, how does the Potency read?
**A.** Its Potency is inconclusive: 20 µM [activator, single point].

**Q.** With `Cc1ccc(Nc2nnc(-c3ccc(N4CCOCC4)c([N+](=O)[O-])c3)c3ccccc23)cc1` as the molecule, how does the Potency read?
**A.** Its Potency is inconclusive: 20 µM [activator, partial curve, poor fit].

**Q.** For `Cc1ccc(CN(C(=O)COc2cccc([N+](=O)[O-])c2)c2ccccn2)cc1`, which Potency is on record?
**A.** Its Potency is inconclusive: 25.1 µM [activator, single point].

**Q.** With `CN(Cc1ccccc1)c1ccc(C(CC(N)=O)NC(=O)c2ccc(Br)cc2)cc1[N+](=O)[O-]` (configuration not stated) as the molecule, how does the Potency read?
**A.** The Potency was inconclusive: 31.6 µM [activator, single point].

**Q.** With `COc1ccc(N(CC(=O)NCCc2ccccc2)S(=O)(=O)c2ccccc2)c(OC)c1` as the molecule, how does the Potency read?
**A.** Its Potency is inconclusive: 35.5 µM [activator, single point].

**Q.** Which Potency does the source give for `O=C(Nc1cccnc1)c1ccc(COc2ccccc2Cl)o1` here?
**A.** Its Potency is “inactive”.

**Q.** Which Potency does the source give for `NC(=S)N/N=C/c1cccc(/C=N/NC(N)=S)c1` here?
**A.** Its Potency is “inactive”.

**Q.** Which Potency does the source give for `FC(F)(F)c1ccc(Sc2n[nH]c(C(F)(F)F)n2)nc1` here?
**A.** Its Potency is “inactive”.

**Q.** Which Potency does the source give for `CC(C)C[C@@H](CN1CCC[C@@H]1CN1C(=S)NC[C@@H]1Cc1ccc(O)cc1)N1C[C@H](Cc2ccc(O)cc2)N(CC2CCCCCC2)C1=S` here?
**A.** Its Potency is inconclusive: 50.1 µM [activator, single point].

**Q.** For `COc1ccc(CC(=O)Nc2sc3c(c2C(N)=O)CCCC3)cc1OC`, which Potency is on record?
**A.** Its Potency is “inactive”.

**Q.** For `COc1ccccc1C(=O)Nc1ccccc1N1CCN(S(C)(=O)=O)CC1`, which Potency is on record?
**A.** The Potency was inconclusive: 50.1 µM [activator, single point].

**Q.** For `CCOc1ccc(-c2cc(OC(=O)c3ccccc3)c3c(C)oc(C)c3c(=O)c2)cc1`, which Potency is on record?
**A.** The Potency was inconclusive: 50.1 µM [activator, single point].

**Q.** For `CC[C@@]12C(=O)N(c3cccc(C)c3)C(=O)N1[C@H](c1ccc(Br)cc1)[C@@H]1C(=O)N(C(C)(C)C)C(=O)[C@@H]12`, which Potency is on record?
**A.** The Potency was inconclusive: 28.2 µM [activator, single point].

**Q.** Which Potency does the source give for `CCN1C(=O)C(CC(=O)Nc2ccc(OC)cc2)N(CCCN2CCN(c3ccc(OC)cc3)CC2)C1=S` (configuration not stated) here?
**A.** Its Potency is inconclusive: 39.8 µM [activator, partial curve, poor fit].

**Q.** With `CSc1cccc(N2CC(C(=O)Nc3cccc(S(=O)(=O)N4CCCC4)c3)CC2=O)c1` (configuration not stated) as the molecule, how does the Potency read?
**A.** The Potency was “inactive”.

**Q.** Which Potency does the source give for `Cc1cccc(N(Cc2ccccc2)C(=O)c2cc(S(=O)(=O)N3CCOCC3)ccc2F)c1` here?
**A.** Its Potency is inconclusive: 50.1 µM [activator, single point].

**Q.** For `Cc1ccc(S(=O)(=O)NN2C(=O)/C(=C/c3ccccn3)SC2=S)cc1`, which Potency is on record?
**A.** The Potency was inconclusive: 11.2 µM [activator, partial curve, poor fit].

**Q.** For `O=C(Nc1ccc(Br)cc1Cl)c1ccc(OCC2CCCO2)cc1` (configuration not stated), which Potency is on record?
**A.** Its Potency is “inactive”.

**Q.** With `Clc1ccc(-c2cccs2)nn1` as the molecule, how does the Potency read?
**A.** Its Potency is “inactive”.

**Q.** With `CC[C@]12c3[nH]c4ccc(Cl)cc4c3CCN1C(=O)[C@@H](CC(=O)NCCC1=CCCCC1)C[C@@H]2C(=O)N1CCN(C(=O)c2ccco2)CC1` as the molecule, how does the Potency read?
**A.** The Potency was inconclusive: 22.4 µM [activator, partial curve, poor fit].

**Q.** Which Potency does the source give for `COc1ccccc1-c1oc2ccccc2c1C#CCCO` here?
**A.** Its Potency is inconclusive: 28.2 µM [activator, single point].

**Q.** For `CCOc1ccc(CCNC(=O)COC(=O)C2CCN(c3ccc(C(F)(F)F)cn3)CC2)cc1OCC`, which Potency is on record?
**A.** Its Potency is inconclusive: 35.5 µM [activator, single point].

**Q.** For `COc1ccc(NC(=O)CSc2nc3c(c(=O)n(C)c(=O)n3C)n2C)c(OC)c1`, which Potency is on record?
**A.** The Potency was “inactive”.

**Q.** Which Potency does the source give for `Brc1ccc(-c2cc3c(N4CCN(c5ccccc5)CC4)nccn3n2)cc1` here?
**A.** The Potency was “inactive”.

**Q.** Which Potency does the source give for `COc1cccc(NC(=O)Cn2c(=O)n(CCC(=O)NCc3ccco3)c(=O)c3ccccc32)c1` here?
**A.** Its Potency is inconclusive: 17.8 µM [activator, partial curve, poor fit].

**Q.** Which Potency does the source give for `NC(=S)N/N=C/c1ccc(Br)o1` here?
**A.** The Potency was “inactive”.

**Q.** For `CC(C)CCNC(=O)c1ccc2c(Cl)c3c(nc2c1)CCC3`, which Potency is on record?
**A.** The Potency was inconclusive: 31.6 µM [activator, single point].

**Q.** With `CCS(=O)(=O)C1=NN2C(=N)/C(=C\c3ccc(OC(=O)c4ccco4)c(OC)c3)C(=O)N=C2S1` as the molecule, how does the Potency read?
**A.** The Potency was inconclusive: 8.91 µM [activator, partial curve].

**Q.** Which Potency does the source give for `COc1ccc(NC(=O)CC2C(=O)N(c3ccc(C)cc3)C(=O)N2CCc2ccccc2)cc1` (configuration not stated) here?
**A.** The Potency was inconclusive: 31.6 µM [activator, single point].

**Q.** Which Potency does the source give for `COCCC1CCCCN1C(=O)c1ccc2nc(Cc3ccccc3F)oc2c1` (configuration not stated) here?
**A.** Its Potency is inconclusive: 3.98 µM [activator, full curve].

**Q.** For `O=C(CSc1nc2ccccc2nc1N1CCOCC1)N1CCN(c2cccc(C(F)(F)F)c2)CC1`, which Potency is on record?
**A.** The Potency was inconclusive: 12.6 µM [activator, partial curve, poor fit].

**Q.** With `COc1ccccc1C(=O)NCCC(=O)N1CCN(S(=O)(=O)c2ccc(Cl)cc2)CC1` as the molecule, how does the Potency read?
**A.** Its Potency is inconclusive: 22.4 µM [activator, partial curve, poor fit].

**Q.** With `Cc1ccc(CNC(=S)Nc2ccc3c(c2)c(=O)n(C)n3Cc2cccc(C(F)(F)F)c2)cc1` as the molecule, how does the Potency read?
**A.** Its Potency is inconclusive: 39.8 µM [activator, single point].

**Q.** For `Oc1c(C2=NCCNC(C(F)(F)F)=C2)ccc2ccccc12`, which Potency is on record?
**A.** The Potency was inconclusive: 39.8 µM [activator, partial curve, poor fit].

**Q.** Which Potency does the source give for `CCC1C(=O)N=C(SCC(=O)Nc2cccc3ccccc23)NC1=O` (configuration not stated) here?
**A.** The Potency was inconclusive: 31.6 µM [activator, partial curve, poor fit].

**Q.** Which Potency does the source give for `CC(OC(=O)C(C)Oc1ccccc1)C(=O)Nc1ccc(S(=O)(=O)N2CCCCC2)cc1` (configuration not stated) here?
**A.** Its Potency is inconclusive: 22.4 µM [activator, partial curve].

**Q.** Which Potency does the source give for `CCOC(=O)N1CCc2c(sc3c2c(=O)n(Cc2ccccc2)c(=O)n3Cc2c(F)cccc2Cl)C1` here?
**A.** The Potency was inconclusive: 35.5 µM [activator, partial curve, poor fit].

**Q.** With `O=C(Cn1c(=O)nc(-c2ccccc2)c2cc(Cl)ccc21)NCc1ccccc1` as the molecule, how does the Potency read?
**A.** The Potency was inconclusive: 3.16 µM [activator, full curve].

**Q.** Which Potency does the source give for `O=C(c1ccc(N2CCN(C(=O)c3ccccc3Br)CC2)cc1)c1cccc(F)c1` here?
**A.** The Potency was “inactive”.

**Q.** For `COc1ccc(-c2ccc(NS(=O)(=O)c3ccc(F)c(C(F)(F)F)c3)cc2)nn1`, which Potency is on record?
**A.** Its Potency is inconclusive: 50.1 µM [activator, single point].

**Q.** Which Potency does the source give for `O=C(Nc1cccc(-c2csc(Nc3ccc(Cl)cc3)n2)c1)c1ccccc1` here?
**A.** The Potency was inconclusive: 11.2 µM [activator, partial curve, poor fit].

**Q.** For `Cc1ccc(NC(=S)NNC(=O)CSc2nnc(SCc3cccc4ccccc34)s2)cc1`, which Potency is on record?
**A.** Its Potency is “inactive”.

**Q.** Which Potency does the source give for `CC(C)C(=O)Nc1ccc(N2CCCC2)cc1` here?
**A.** Its Potency is inconclusive: 39.8 µM [activator, single point].

**Q.** Which Potency does the source give for `Cc1cc(NC(=O)C2CCN(S(=O)(=O)Cc3ccccc3)CC2)ccc1-n1cnnn1` here?
**A.** Its Potency is inconclusive: 7.94 µM [activator, single point].

**Q.** With `O=C(CN(c1cccc(Br)c1)S(=O)(=O)c1ccccc1)N1CCc2ccccc2C1` as the molecule, how does the Potency read?
**A.** Its Potency is inconclusive: 31.6 µM [activator, single point].

**Q.** Which Potency does the source give for `COCCNC(=O)c1c(NC(=O)Cc2coc3cc(C)ccc23)sc2c1CCCC2` here?
**A.** The Potency was inconclusive: 25.1 µM [activator, single point].

**Q.** With `CCC(C)NC(=O)c1ccc2c(c1)N(Cc1cccc(Cl)c1)C(=O)c1ccccc1S2=O` (configuration not stated) as the molecule, how does the Potency read?
**A.** The Potency was inconclusive: 28.2 µM [activator, single point].

**Q.** With `Cc1ccc(NC(=O)CN(C)C(=O)c2cc(-c3ccco3)nc3ccccc23)cc1` as the molecule, how does the Potency read?
**A.** Its Potency is inconclusive: 14.1 µM [activator, partial curve].

**Q.** Which Potency does the source give for `Cc1ccc(SCc2nc3ccccc3n2CC(=O)Nc2ccc(Cl)cc2)cc1` here?
**A.** Its Potency is inconclusive: 44.7 µM [activator, partial curve, poor fit].

**Q.** For `COc1ccc(/C=C2\C(=O)OCc3cc(OC)c(OC)cc32)cc1OC`, which Potency is on record?
**A.** Its Potency is inconclusive: 10 µM [activator, single point].
